According to PubChem BioAssay (NCATS):
The shares of active, inactive and inconclusive entries below differ from those in the screen. No potency is given beside an inconclusive call; the fits are too rough. The source made the active and inactive calls. Unless noted, calls follow the shape of the dose curve; as a rule, active = well fitted curve in the direction sought with a large enough effect in the repeat runs; inconclusive = weak or mixed curves; inactive = no such curve, though single readings can be large; an effect the other way counts as inactive or inconclusive.

Legend:
[1] = biological target: Cytochrome P450 3A4 (Homo sapiens) (UniProt P08684); assay: Cytochrome P450 family 3 subfamily A member 4 (CYP3A4) small molecule antagonists: luciferase qHTS assay (AID 1645841); also: nearly all actives have a fitted effect of over 45% in size
Outline: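 P450-Glo CYP3A4 enzyme with proluciferin substrate preincubated 10 min with compound at room temperature, then NADPH regeneration 1 h. Luciferin detection reagent added for 20 min; luminescence recorded. Ketoconazole positive control.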

[2] = biological target: Cytochrome P450 2D6 (Homo sapiens) (UniProt P10635); assay: Cytochrome P450 family 2 subfamily D member 6 (CYP2D6) small molecule antagonists: luciferase biochemical (cell-free) qHTS assay (AID 1645840); also: nearly all actives have a fitted effect of over 55% in size
Outline: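 P450-Glo luminescent screen: recombinant CYP2D6 enzyme–proluciferin substrate mix preincubated with compound 10 min at room temperature, then NADPH regeneration added for 1 h at room temperature. Detection reagent added for 20 min; luciferin light read as relative luminescence units.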

[3] = Cytotoxicity counterscreen for inhibitors of SARS-CoV-2 cell entry (AID 1645845; calls by dose curve; also: nearly all actives have a fitted effect of over 50% in size); settings: activity change, negative = cytotoxicity: at 57.1 µM (top of the series) unless noted
Outline: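 HEK293-ACE2 cells (Expi293F stably expressing human ACE2) seeded overnight, then compound for 1 h plus 48 h at 37C. Viability as ATP content by luminescence; normalized to wells with cells and media-only wells.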

[4] = biological target: Cytochrome P450 2C9 (Homo sapiens) (UniProt P11712); assay: Cytochrome P450 family 2 subfamily C member 9 (CYP2C9) small molecule antagonists: luciferase biochemical (cell-free) qHTS assay (AID 1645842); also: nearly all actives have a fitted effect of over 55% in size
Outline: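 Luminescence, after 20 min with luciferin detection reagent, reflected CYP2C9 turnover during a 1 h NADPH-driven reaction at 37C. Enzyme-substrate mix contained 0.4% bovine serum albumin and was preincubated with compound 10 min at room temperature.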
Potency is read from the fitted curve at half-maximal effect; tags tell the direction and shape of the fitted curve.

Chain of UniProt P08684 (P08684 whole entry, looked up): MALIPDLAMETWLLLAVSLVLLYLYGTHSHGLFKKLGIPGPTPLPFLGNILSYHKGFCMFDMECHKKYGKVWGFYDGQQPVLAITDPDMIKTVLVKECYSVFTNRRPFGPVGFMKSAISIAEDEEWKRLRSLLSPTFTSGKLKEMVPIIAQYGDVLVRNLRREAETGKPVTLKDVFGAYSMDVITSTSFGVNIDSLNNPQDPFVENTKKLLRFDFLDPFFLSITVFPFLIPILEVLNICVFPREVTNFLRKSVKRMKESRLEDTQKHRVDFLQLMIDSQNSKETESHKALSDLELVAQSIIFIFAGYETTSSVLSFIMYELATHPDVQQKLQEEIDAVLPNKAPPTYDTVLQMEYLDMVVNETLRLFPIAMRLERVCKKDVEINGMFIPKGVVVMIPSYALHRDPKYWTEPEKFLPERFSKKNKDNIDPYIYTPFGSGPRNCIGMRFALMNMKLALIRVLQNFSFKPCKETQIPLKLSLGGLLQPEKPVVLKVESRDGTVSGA
Chain of UniProt P11712 (P11712 whole entry, looked up): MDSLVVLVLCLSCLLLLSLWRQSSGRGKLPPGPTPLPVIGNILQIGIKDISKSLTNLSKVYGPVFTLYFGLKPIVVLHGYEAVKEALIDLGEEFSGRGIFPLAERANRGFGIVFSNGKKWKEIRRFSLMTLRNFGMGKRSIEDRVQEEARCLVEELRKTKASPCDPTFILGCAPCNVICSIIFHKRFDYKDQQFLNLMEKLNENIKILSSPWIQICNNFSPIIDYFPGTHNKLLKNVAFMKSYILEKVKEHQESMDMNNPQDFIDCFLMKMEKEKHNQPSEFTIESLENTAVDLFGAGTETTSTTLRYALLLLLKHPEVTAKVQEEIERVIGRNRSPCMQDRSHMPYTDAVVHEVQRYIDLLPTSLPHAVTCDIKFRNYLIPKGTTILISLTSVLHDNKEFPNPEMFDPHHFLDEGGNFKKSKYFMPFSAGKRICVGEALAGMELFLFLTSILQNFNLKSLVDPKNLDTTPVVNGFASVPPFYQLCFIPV
Chain of UniProt P10635 (P10635 whole entry, looked up): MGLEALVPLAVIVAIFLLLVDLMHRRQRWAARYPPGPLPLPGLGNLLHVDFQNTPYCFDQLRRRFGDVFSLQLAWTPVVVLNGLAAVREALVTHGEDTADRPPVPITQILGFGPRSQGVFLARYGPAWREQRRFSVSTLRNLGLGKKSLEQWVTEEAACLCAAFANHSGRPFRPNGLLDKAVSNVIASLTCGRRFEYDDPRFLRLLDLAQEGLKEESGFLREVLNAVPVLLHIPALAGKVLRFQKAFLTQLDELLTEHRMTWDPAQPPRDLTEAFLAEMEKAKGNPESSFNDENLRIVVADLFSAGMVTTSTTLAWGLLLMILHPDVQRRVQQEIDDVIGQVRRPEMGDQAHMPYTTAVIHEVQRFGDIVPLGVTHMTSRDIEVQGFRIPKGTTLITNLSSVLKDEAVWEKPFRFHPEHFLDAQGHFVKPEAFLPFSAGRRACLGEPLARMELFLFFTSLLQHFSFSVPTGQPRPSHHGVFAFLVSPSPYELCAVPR

## CCCN(CCC)CCc1c[nH]c2ccccc12
[1]
  Potency: inactive

## C#C[C@]1(O)C=C[C@H]2[C@@H]3CCC4=CC(=O)CC[C@@H]4[C@H]3CC[C@@]21CC
[2]
  Potency: inconclusive [inhibitor, single point]
[3]
  Potency: inactive

## N#Cc1cn([C@@H]2O[C@H](CO)[C@H](O)[C@@H]2O)c2ncnc(N)c12
[4]
  Potency: inactive

## CC1(N2CCC(n3c([C@@H]4CCCNC4)nc4ccccc43)CC2)CCCCCCC1
[2]
  Potency: inconclusive [inhibitor, partial curve, poor fit]
[4]
  Potency: inactive
[3]
  Potency: inconclusive [cytotoxic, partial curve, poor fit]

## CC(Cc1ccccc1)NCCCCl (centres undefined)
[1]
  Potency: inconclusive [falling, partial curve, poor fit]

## CCN(C(C)=O)c1cccc(-c2ccnc3c(C#N)cnn23)c1
[2]
  Potency: inactive
[4]
  Potency: inconclusive [inhibitor, partial curve]

## O=C(O)c1ccc(=O)[nH]c1
[4]
  Potency: inactive

## O=C1C2CC=CCC2C(=O)N1SC(Cl)(Cl)Cl (centres undefined)
[2]
  Potency: inconclusive [inhibitor, partial curve]
[3]
  Potency: inconclusive [cytotoxic, single point]

## CCOC(=O)C1(CCc2ccccc2)CCN(Cc2ccc(NC(C)=O)cc2)CC1
[4]
  Potency: inconclusive [inhibitor, single point]

## Cc1ccccc1CN1CCC(N2CCC(n3c(=O)[nH]c4ccccc43)CC2)CC1
[1]
  Potency: inconclusive [falling, single point]
[4]
  Potency: inactive

## O=[N+]([O-])c1cc([As](=O)(O)O)ccc1O
[1]
  Potency: inactive

## O=[N+]([O-])/N=C1\NCCN1Cc1ccc(Cl)nc1
[2]
  Potency: inactive
[3]
  Potency: inactive

## Cc1sc2c(c1C)C(c1ccc(Cl)cc1)=NC(CC(=O)Nc1ccc(O)cc1)c1nnc(C)n1-2 (centres undefined)
[2]
  Potency: inactive
[4]
  Potency: inactive

## C[C@H](N)[C@H](O)c1ccc(O)c(O)c1
[2]
  Potency: inconclusive [inhibitor, full curve]
[3]
  Potency: inactive

## CC(=O)[C@H]1CC[C@H]2[C@@H]3CC[C@H]4C[C@](C)(O)CC[C@]4(C)[C@H]3CC[C@]12C
[1]
  Potency: inconclusive [falling, single point]
[4]
  Potency: inactive

## CN(C)c1cc2c(cc1Sc1nc3c(N)nccc3n1CCNCC(C)(C)C)OCO2
[2]
  Potency: active: 0.952 µM
[3]
  Potency: inconclusive [cytotoxic, full curve]

## C[C@]12CC[C@H]3[C@@H](CCC4=CC(=O)CC[C@@H]43)[C@@H]1CC[C@@H]2OC(=O)CCc1ccccc1
[1]
  Potency: inactive

## CN(C)CCc1c[nH]c2ccccc12
[1]
  Potency: inactive

## COC(=O)c1cncn1C(C)c1ccccc1 (centres undefined)
[1]
  Potency: inconclusive [falling, full curve]
[3]
  Potency: inactive

## CN1C[C@@H]2CN(c3ccc(-c4ccccc4)nn3)C[C@@H]2C1
[1]
  Potency: inconclusive [falling, single point]
[4]
  Potency: inconclusive [inhibitor, single point]

## CCCCCCC(=O)CCCCCC/C=C/C[C@@H](O)[C@H](O)[C@@](N)(CO)C(=O)O
[4]
  Potency: inactive

## C[C@H]1C(=O)O[C@@H]2CCN3CC=C(COC(=O)[C@](C)(O)[C@]1(C)O)[C@H]23
[2]
  Potency: inactive
[4]
  Potency: inactive

## O=C(NCC1CCOCC1)c1cnc(Nc2ccc(Cl)cc2Cl)nc1C(F)(F)F
[4]
  Potency: inconclusive [inhibitor, partial curve, poor fit]

## COc1ccc2c(c1)c(CCN(C)C)cn2S(=O)(=O)c1ccccc1
[1]
  Potency: inconclusive [falling, partial curve, poor fit]
[4]
  Potency: active: 15.1 µM

## Cc1[nH]c2ccc(Cl)cc2c1CCN(C)C
[4]
  Potency: inactive

## CCN1CCCC1CNC(=O)C(O)(c1ccccc1)c1ccccc1 (centres undefined)
[1]
  Potency: inconclusive [falling, full curve, poor fit]

## Cc1cc(O)ccc1Cl
[1]
  Potency: inconclusive [falling, partial curve, poor fit]

## ClCCCN1CCN(c2cccc(Cl)c2)CC1
[1]
  Potency: inactive
[4]
  Potency: inconclusive [inhibitor, single point]

## CCC1(c2ccc(N)cc2)CCC(=O)NC1=O (centres undefined)
[1]
  Potency: inconclusive [falling, partial curve]

## C[C@]12CCC(=O)C(O)=C1CC[C@@H]1[C@@H]2CC[C@]2(C)C(=O)CC[C@@H]12
[4]
  Potency: inactive

## CC[C@H]1C[C@H]2[C@@H]3CCC4=CC(=O)CC[C@@H]4[C@H]3CC[C@]2(C)[C@H]1O
[4]
  Potency: inconclusive [inhibitor, partial curve]

## CC(C)(C)OC(=O)c1ncn2c1[C@@H]1CCCN1C(=O)c1c(Br)cccc1-2
[4]
  Potency: active: 4.36 µM

## COC(C)(C)CCCC(C)C/C=C/C(C)=C/C(=O)OC(C)C (centres undefined)
[1]
  Potency: inconclusive [falling, single point]
[4]
  Potency: inconclusive [inhibitor, single point]

## O=C(CBr)Nc1ccc(Cl)cc1C(=O)c1ccccc1F
[2]
  Potency: inconclusive [inhibitor, partial curve]
[4]
  Potency: inconclusive [inhibitor, partial curve]

## CN1C(=O)CN=C(c2ccccc2Cl)c2cc(Cl)ccc21
[1]
  Potency: inconclusive [falling, single point]

## CC1OC(C)OC(C)O1 (centres undefined)
[1]
  Potency: inconclusive [falling, partial curve, poor fit]
